The source of these data is patent US20220117993A1, “Compounds Useful in HIV Therapy” (GlaxoSmithKline Intellectual Property (No. 2) Limited, priority 2018, published 2022).

Read-outs that look alike come from different tables or passages of the source.

Usually IC50 stands for the concentration at which inhibition is half-maximal.

Assay [1] concerns WT PSV infection of U373 cells. The conditions noted are these: ratio of the IC50 determined at 48 and 0 h.
In assay [2] the test system is WT PSV infection of U373 cells. As to the kind of experiment: microbe, parasite or virus in culture. The conditions noted are these: Human immunodeficiency virus 1, U373 MG.

As to `C#C[C@]1(CO)O[C@@H](n2cnc3c(N)nc(F)nc32)C[C@@H]1OC(=O)CCCCCCC/C=C\C/C=C\C/C=C\CC` [Example 7, (9Z,12Z,15Z)-(2R,3S,5R)-5-(6-amino-2-fluoro-9H-purin-9-yl)-2-ethynyl-2-(hydroxymethyl)tetrahydrofuran-3-yl octadeca-9,12,15-trienoate], in assay [1], the “Persistence Index” value amounted to 21.4. Moreover, the figures for the IC50 in assay [2] (read-out: WT IC50 at t = 0 h) and in assay [2] (read-out: WT IC50 at t = 48 h) were 5.1 nM and 127 nM, respectively.

For the molecule `C#C[C@]1(CO)O[C@@H](n2cnc3c(N)nc(F)nc32)C[C@@H]1OC(=O)CCCCCCCCCCCCCCCCCCC` [Example 6, (2R,3S,5R)-5-(6-amino-2-fluoro-9H-purin-9-yl)-2-ethynyl-2-(hydroxymethyl)tetrahydrofuran-3-yl icosanoate], in assay [1], the “Persistence Index” value came out at 4.7. The IC50 in assay [2] (read-out: WT IC50 at t = 0 h) came out at 410 nM; in assay [2] (read-out: WT IC50 at t = 48 h) it was 2180 nM.

With `C#C[C@]1(CO)O[C@@H](n2cnc3c(N)nc(F)nc32)C[C@@H]1OC(C)=O` [Example 1, (2R,3S,5R)-5-(6-amino-2-fluoro-9H-purin-9-yl)-2-ethynyl-2-(hydroxymethyl)tetrahydrofuran-3-yl acetate], in assay [1], the “Persistence Index” value was found to be 37.4. The IC50 in assay [2] (read-out: WT IC50 at t = 0 h) is 76 nM; in assay [2] (read-out: WT IC50 at t = 48 h), 2200 nM.

For the molecule `C#C[C@]1(CO)O[C@@H](n2cnc3c(NC(=O)CCCCCCCCCCCCC)nc(F)nc32)C[C@@H]1OC(C)=O` [Example 14, (2R,3S,5R)-2-ethynyl-5-(2-fluoro-6-tetradecanamido-9H-purin-9-yl)-2-(hydroxymethyl)tetrahydrofuran-3-yl acetate], the “Persistence Index” value in assay [1] worked out at 11.4. In addition, the IC50 in assay [2] (read-out: WT IC50 at t = 0 h) was 6.4 nM; in assay [2] (read-out: WT IC50 at t = 48 h), 72.9 nM.
